# Some of the results follow. Sequences were assembled here from the parent chain. Inactive controls read about 0.05.
# B1: TEV protease; numbered along this chain (parent)
# chain: MGESLFKGPRDYNPISSSICHLTNESDGHTTSLYGIGFGPFIITNKHLFRRNNGTLVVQSLHGVFKVKDTTTLQQHLVDGRDMIIIRMPKDFPPFPQKLKFREPQREERICLVTTNFQTKSMSSMVSDTSCTFPSGDGIFWKHWIQTKDGQCGSPLVSTRDGFIVGIHSASNFTNTNNYFTSVPKNFMELLTNQEAQQWVSGWRLNADSVLWGGHKVFMVKPEEPFQPVKEATQL
# Variants of: B1
# Experiment: raw area under fraction-flipped curve 0-4 h after induction (AUC4h, not background-subtracted), DNA-recorder readout of cleavage of the substrate (dimensionless); higher = more cleavage of the substrate by the protease variant
# Conditions: temperature: 34 °C; time window: 0-4 h after rhamnose induction
# Procedure: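 In vivo DNA recorder in E. coli TOP10(DE3) ΔrhaA at 34 °C. Each TEVp single-site mutant (parent TEVp 0) is paired with a single-site variant of the 7-mer TEVs (canonical ENLYFQ|S). The substrate sits between flexible linkers in a Bxb1-sfGFP-TEVs-SsrA fusion, so cleavage stabilises Bxb1 and speeds flipping of a recombination array, read by NGS. The value is the raw area under the fraction-flipped curve over 0-4 h after rhamnose induction (AUC4h), with ≥20 reads per time point. It is not background-subtracted; inactive controls average about 0.047.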
# 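Note: Bxb1 expression induced with 0.2% (w/v) L-rhamnose at OD600 near 0.5, cultures sampled hourly, flipped fraction per protease–substrate barcode pair counted by paired-end Illumina sequencing.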
Variant,area with substrate ENLYFQA,area with substrate ENLYFQC,area with substrate ENLYFQG,area with substrate ENLYFQH,area with substrate ENLYFQI,area with substrate ENLYFQK,area with substrate ENLYFQL,area with substrate ENLYFQM,area with substrate ENLYFQN,area with substrate ENLYFQP,area with substrate ENLYFQQ,area with substrate ENLYFQR,area with substrate ENLYFQS,area with substrate ENLYFQT,area with substrate ENLYFQW,area with substrate ENLYFQD,area with substrate ENLYFQE,area with substrate ENLYFQV,area with substrate ENLYFQY,area with substrate ENLYFQF
MGESLFKGPRDYNPISSSICHLTNESDGHTTSLYGIGFGPFIITNKHLFRRNHGTLVVQSLHGVFKVKDTTTLQQHLVDGRDMIIIRMPKDFPPFPQKLKFREPQREERICLVTTNFQTKSMSSMVSDTSCTFPSGDGIFWKHWIQTKDGQCGSPLVSTRDGFIVGIHSASNFTNTNNYFTSVPKNFMELLTNQEAQQWVSGWRLNADSVLWGGHKVFMVKPEEPFQPVKEATQL [N53H],0.0708,0.072,0.0754,0.102,0.0487,0.0651,0.0657,0.101,0.0736,0.0707,0.0564,0.0587,0.0865,0.0706,0.0628,,,,,
MGESLFKGPRDYNPISSSICHLTNESDGHTTSLYGIGFGPFIITNKHLFRRNNGTLVVQSLHGVFKVKDTTTLQQHLVDGRDMIIIRMPKDFPPFPQKLKFREPQREERICLVTTNFQTKSMSSMVSDTSCTFPSGDGIFWKHWIQTKDGQCGSPPVSTRDGFIVGIHSASNFTNTNNYFTSVPKNFMELLTNQEAQQWVSGWRLNADSVLWGGHKVFMVKPEEPFQPVKEATQL [L156P],0.0495,0.0567,0.058,,0.0464,0.0665,0.0599,0.0483,,,,0.0253,0.0546,0.0449,0.0534,0.0486,0.0531,0.0492,,
MGESLFKGPRDYNPISSSICHLTNESDGHTTSLYGIGFGPFIITNKHLFRRNNGTLVVQSLHGVFKVKDTTTLQQHLVDGRDMIIIRMPKDFPPFPQKLKFREPQREERICLVTTNFQTKSMSSMVSDTSCTFPSGDGIFWKHWIQTKDGQCDSPLVSTRDGFIVGIHSASNFTNTNNYFTSVPKNFMELLTNQEAQQWVSGWRLNADSVLWGGHKVFMVKPEEPFQPVKEATQL [G153D],0.0345,0.0388,,0.045,,,0.0704,0.0616,,,,,0.0452,,0.0478,0.0444,0.0557,,,
MGESLFKGPRDYNPISSSICHLTNESDGHTTSLYGIGFGPFIITNKHLFRRNNGTLVVQSLHGVFKVKDTTTLQQHLVDGRDMIIIRMPKDFPPFPQKLKFREPQREERICLVTTNFQTKSMSSMVSDTSCTFPSGDGIFWKHWIQTKDGQCGSPLVSTRDGFIVGIHSASNFTNTNNHFTSVPKNFMELLTNQEAQQWVSGWRLNADSVLWGGHKVFMVKPEEPFQPVKEATQL [Y179H],0.064,0.0574,0.072,0.0551,,,0.0565,,,0.0344,,0.0587,0.0598,0.0557,0.0627,,0.0745,,0.0641,
MGESLFKGPRDYNPISSSICHLTNESDGHTTSLYGIGFGPFIITNKHLFRRNNGTLVVQSLHGVFKVKDTTTLQQHLVDGRDMIIIRMPKDFPPFPQKLKFREPQREERICLVTTNFQTKSMSSMVSDTSCTFPSGDGIFWKHWIQTKDMQCGSPLVSTRDGFIVGIHSASNFTNTNNYFTSVPKNFMELLTNQEAQQWVSGWRLNADSVLWGGHKVFMVKPEEPFQPVKEATQL [G150M],0.0571,0.0524,,,0.0634,0.0631,0.0583,0.0569,,,,0.0507,0.0613,0.0676,0.0537,,0.0451,0.0302,,
MGESLFKGPRDYNPISSSICHLTNESDGHTTSLYGIGFGPFIITNKHLFRRNNGTLVVQSLHGVFKVKDTTTLTQHLVDGRDMIIIRMPKDFPPFPQKLKFREPQREERICLVTTNFQTKSMSSMVSDTSCTFPSGDGIFWKHWIQTKDGQCGSPLVSTRDGFIVGIHSASNFTNTNNYFTSVPKNFMELLTNQEAQQWVSGWRLNADSVLWGGHKVFMVKPEEPFQPVKEATQL [Q74T],0.0525,,,,,0.0649,,0.0764,,,,,0.0814,,0.0577,,,,,
MGESLFKGPRDYNPISSSICHLTNESDGHTTSLYGIGFGPFIITNKHLFRRNNGTLVCQSLHGVFKVKDTTTLQQHLVDGRDMIIIRMPKDFPPFPQKLKFREPQREERICLVTTNFQTKSMSSMVSDTSCTFPSGDGIFWKHWIQTKDGQCGSPLVSTRDGFIVGIHSASNFTNTNNYFTSVPKNFMELLTNQEAQQWVSGWRLNADSVLWGGHKVFMVKPEEPFQPVKEATQL [V58C],0.12,0.122,,0.0493,0.0611,,0.05,,0.056,,0.0831,0.043,0.0926,0.0544,0.0686,0.0837,0.063,,,0.0673
MGESLFKGPRDYNPISSSICHLTNESDGHTTSLYGIGFGPFIITNKHLFRRNNGTLVVQSLHGVFKVKDTTTLQQHLVDGRDMIIIRMPKDFPPFPQKLKFREPQREERICLVTTNFQTKSMSSMVSDTSCTFPSGDGIFWKHWIQTKDGQCHSPLVSTRDGFIVGIHSASNFTNTNNYFTSVPKNFMELLTNQEAQQWVSGWRLNADSVLWGGHKVFMVKPEEPFQPVKEATQL [G153H],0.048,0.0478,,0.0472,0.0366,,,,0.0472,0.0466,0.0254,0.0418,0.0489,0.0474,,,,,,
MGESLFKGPRDYNPISSSICHLTNESDGHTTSLYGIGFGPFIITNKHLFRRNNGTLVVQSLHGVFKVKDTTTLQQHLVDGRDMIIIRMPKDFPPFPQKLKFREPQREERICLVTTNFQTKSMSSMVSDTSCTFPSGDGIFWKHWIQTKDGQCGSPLVSTRDGFIVGIHSASNFTNTNNYFTSVPKNFMELLTNQEAQQWVSGWRLNADSVLWGGHKVFMVKPEEPFQPVKEITQL [A232I],0.102,,,,,,,,,,,,0.0973,0.0242,,,,0.0713,,
MGESLFKGPRDYNPISSSICHLTNESDGHTTSLYGIGFGPFIITNKHLFRRNNGTLVVCSLHGVFKVKDTTTLQQHLVDGRDMIIIRMPKDFPPFPQKLKFREPQREERICLVTTNFQTKSMSSMVSDTSCTFPSGDGIFWKHWIQTKDGQCGSPLVSTRDGFIVGIHSASNFTNTNNYFTSVPKNFMELLTNQEAQQWVSGWRLNADSVLWGGHKVFMVKPEEPFQPVKEATQL [Q59C],0.111,,,0.0734,0.0635,,,0.105,0.0989,0.0598,,0.0531,0.104,,0.0629,0.0763,,0.0624,,

# Source: the supplement of paper PMC12217912
